The entries are a selection whose mix differs from that of the whole data set. Results filed as inconclusive are left out. Active and inactive are the calls of the source. Calls follow the shape of the dose curve; as a rule, active = well fitted curve in the direction sought with a large enough effect; inconclusive = small, poorly fitted or top-dose-only effect, or effect the other way; inactive = no such curve, though single readings can be large or run the other way.
Each compound was assayed against Cytochrome P450 2C19 (Homo sapiens) (UniProt P33261) (assay: Cytochrome panel assay with activity outcomes). Conditions: recombinant CYP, pro-luciferin dealkylation, luminescence, p450-cyp2c19; series mostly up to 57.1 µM; activity, negative = inhibition: at the top concentration.
UniProt P33261, sequence (P33261 whole entry, looked up): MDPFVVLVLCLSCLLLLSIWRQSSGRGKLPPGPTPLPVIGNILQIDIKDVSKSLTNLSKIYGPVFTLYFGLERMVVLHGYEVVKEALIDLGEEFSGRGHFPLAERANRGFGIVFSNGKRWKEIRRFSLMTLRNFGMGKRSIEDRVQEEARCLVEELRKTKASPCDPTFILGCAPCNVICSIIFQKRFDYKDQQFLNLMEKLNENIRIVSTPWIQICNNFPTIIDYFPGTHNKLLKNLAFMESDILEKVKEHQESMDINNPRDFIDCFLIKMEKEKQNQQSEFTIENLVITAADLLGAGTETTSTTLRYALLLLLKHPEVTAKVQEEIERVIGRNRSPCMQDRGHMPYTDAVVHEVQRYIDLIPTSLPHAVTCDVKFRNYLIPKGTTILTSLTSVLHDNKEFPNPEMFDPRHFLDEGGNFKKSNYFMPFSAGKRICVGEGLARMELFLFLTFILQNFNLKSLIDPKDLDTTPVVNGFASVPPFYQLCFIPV
% is scaled to controls: 0 for no effect and ±100 for the full control effect.

SMILES | AC50 | activity, negative = inhibition
Nc1nc2ccc(OC(F)(F)F)cc2s1 | inactive | –
CCN(C(=O)CSc1nnc(Cc2cccc3ccccc23)n1N)C1CCS(=O)(=O)C1 (stereo not given) | – | inactive: -13.2%
O=S(=O)(c1ccccc1)N1CCN(S(=O)(=O)c2ccccc2)c2ccccc21 | active: 0.126 µM | –
COc1ccc(C2=NN(C)C(=NCc3ccccc3)SC2)cc1 | active: 14.1 µM | –
C[C@@H]1C[C@H]2[C@@H]3C[C@H](F)C4=CC(=O)C=C[C@@]4(C)[C@]3(F)[C@H](O)C[C@]2(C)[C@@]1(O)C(=O)CO | – | inactive: 11.5% [at 25.6 µM]
COC(=O)C1=C(C(=O)OC)C(c2cc(Cl)ccc2O)c2sc(=O)[nH]c2S1 (stereo not given) | active: 7.94 µM | –
CCC[C@H]1C[C@H](C(=O)N[C@@H]([C@H]2O[C@@H](SC)[C@@H](O)[C@@H](O)[C@@H]2O)[C@H](C)Cl)N(C)C1 | – | inactive: -12.8% [at 25.6 µM]
Nc1ccc(Sc2ccccc2CC(=O)O)cc1 | active: 11.2 µM | –
CCOc1cc(/C=N/n2cnnc2)ccc1OC(=O)c1cccc([N+](=O)[O-])c1 | active: 14.1 µM | –
Cc1ccc(OCCNC(=O)/C=C/c2ccc([N+](=O)[O-])cc2)cc1C | – | inactive: -16.2%

— PubChem BioAssay AID1851 (National Center for Advancing Translational Sciences (NCATS), 2009)
